According to article PMC7432475, “β-Carbolines in Experiments on Laboratory Animals” (International Journal of Molecular Sciences, 2020):

Settings: rat, in vivo, in 100g, stage I
Experimental: The experiment was conducted in the animal housing facility at the Institute of Human Nutrition and Dietetics, Poznań University of Life Sciences, under conditions of natural light and with the temperature maintained during the experiment at 19–22 °C, and with a relative humidity of 55–60%. Seventeen-month-old male Sprague Dawley rats originating from a Charles River Laboratories farm were used in the experiment. The age of the rats corresponded to 51 years of human life. For the first ten days of the experiment (the adaptation period), the rats were fed ad libitum with a standard laboratory diet and water. The experiment was conducted in two stages. In the first stage, after acclimatization, the animals were randomly divided into seven groups (n = 6 each). The control rats were fed the AIN-93M rodent diet. […] There were no differences in body weight between the groups at the beginning of either stage of the experiment. All rats were provided ad libitum diet and water for the fourteen weeks of both experiments. The food consumption of the individual rats was monitored daily by measuring the difference between the amount of diet supplied each day and the amount of diet remaining. Feces were collected for ten days in the seventh week of the experiment, and water content, protein, fat, dietary fiber, and ash were determined using standard analytical methods. Body mass was measured every seven days using an electronic balance. […]
The total dietary (TDF), soluble (SDF), and insoluble (IDF) dietary fiber content of the experimental diet, defatted prior to analysis, were determined following a method described by Asp, Johansson, Hallmer, and Siljeström. […] Fat content was measured after extracting 5 g with petroleum ether in a Soxtec Avanti 2055 apparatus (FOSS Tecator AB, Höganäs, Sweden). […] Samples of 2 g were dried in an automatic air exchange dryer at 130 °C until constant weight, expressed as g/100 g of feces. […] The average ash content was calculated as g/100 g of feces.

SMILES: Cc1nccc2c1[nH]c1ccccc12 [H, harman]
- IDF [g] (insoluble dietary fiber) in feces (group H1 (10 µg H/kg diet)): 55,21 g
- IDF [g] (insoluble dietary fiber) in feces (group H2 (15 µg H/kg diet)): 56,86 g
- IDF [g] (insoluble dietary fiber) in feces (group H3 (20 µg H/kg diet)): 54,91 g

Where two headings read alike, the source gives them in different places.
